{
  "source": "paper PMC6471242",
  "about": "“Dereplication by High-Performance Liquid Chromatography (HPLC) with Quadrupole-Time-of-Flight Mass Spectroscopy (qTOF-MS) and Antiviral Activities of Phlorotannins from Ecklonia cava” (Marine Drugs, 2019)",
  "system": "neuraminidase",
  "test": "Immunofluorescence assay of neuraminidase in H1N1-infected MDCK cells",
  "settings": "10, 20, and 40 µM, 24 h",
  "data": [
    {"compound": "Oc1cc(O)cc(Oc2c(O)cc(O)c3c2Oc2c(O)cc4oc5c(Oc6cc(O)cc(O)c6)c(O)cc(O)c5c4c2O3)c1", "note": "[Compound 12, Phlorofucofuroeckol A]", "values": [
      {"measurement": "neuraminidase protein expression in viral-infected cell cytoplasm (fluorescence images)", "value": "decreased neuraminidase protein expression"}
    ]}
  ]
}
